We go through 82 compounds from PubChem BioAssay AID504845 (National Center for Advancing Translational Sciences (NCATS), 2011).

Molecules are shown by their SMILES. “And” between values parts separate entries of the source, which are not always exact repeats. Equal values may be shown once. Hit rate of the full screen: of about 390,000 compounds, about 150 (0.038%) were called active. About 3% were inconclusive and are not listed. The call rests on the fitted dose curve; in most records, active means well fitted inhibition curve with a large enough effect; inconclusive means small, poorly fitted or top-dose-only effect; inactive means no such curve, though single readings can be large or run the other way. This is a selection; strong and weak results do not stand in their true shares. More than one record can exist for a structure, and the calls need not agree.
On the % scale 0 is the no-effect control and ±100 the full control effect; potency means the concentration at half of the fitted maximal effect.

This experiment concerns the target Regulator of G-protein signaling 4 (Homo sapiens) (UniProt P49798). The experiment is described as follows: Inhibitors of Regulator of G Protein Signaling (RGS) 4: qHTS. Further: nearly all actives have a fitted effect of over 75% in size. The following applies: Transcreener GDP fluorescence polarization, RGS4-accelerated GTP hydrolysis; series mostly up to 114 µM; activity change, negative = inhibition: at the top concentration. Put shortly: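 MLSMR compounds (23 nl, pin-transferred) preincubated 10 min at room temperature with a 500nM (2x) first reagent, then RGS4 at 900nM (2x) plus Transcreener GDP mix added; fluorescence polarization (620/688 nm) read before and after 90 min at 30 °C.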
Chain of UniProt P49798 (P49798 whole entry, looked up): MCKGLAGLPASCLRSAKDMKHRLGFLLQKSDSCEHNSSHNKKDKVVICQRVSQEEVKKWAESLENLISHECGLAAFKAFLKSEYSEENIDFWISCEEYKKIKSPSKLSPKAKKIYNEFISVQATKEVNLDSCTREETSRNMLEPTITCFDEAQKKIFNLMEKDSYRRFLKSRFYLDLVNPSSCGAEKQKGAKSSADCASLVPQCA
`CSc1nc(C)c(CCOC(=O)c2cccc(Cl)c2)c(=O)[nH]1`: the “activity change, negative = inhibition” value is inactive: 60.6%.
On the same count and under the same terms, the same measure for `NCCCCN`: inactive: 4.77% [at 56.9 µM]; for `CC1(C)Oc2ccc(C#N)cc2[C@@H](OC2=CC(=O)CC2)[C@@H]1O`: inactive: 0% [at 56.9 µM].
Same read-out and setting: the same measure for `COc1ccc(C)cc1S(=O)(=O)N1CCN(S(=O)(=O)c2cc(C)ccc2OC)C(C)C1` (configuration not stated): inactive: 61.5%.
The same measure, in the same setting: for `O=S(=O)(/N=C(\Sc1ccccc1)c1ccccc1)c1ccc(Cl)cc1` the value was inactive: -45.3%.
For `CN(C)c1nc(N)c(C(=O)N=C(N)N)nc1Cl`, the Potency entry is “inactive”.
On to `COc1ccc(Oc2coc3cc(OC(=O)c4cncc(Br)c4)ccc3c2=O)cc1`, for which the “activity change, negative = inhibition” value is inactive: 56.6%.
On the same count and under the same terms, for `CC/C=C\C/C=C\C/C=C\CCCCCCCC(=O)O` the value was inactive: 312% [at 56.9 µM]; for `C(=C/c1nccc2c1[nH]c1ccccc12)/c1ccc2c(c1)OCO2`, inactive: -12.4%; for `O=C(CCc1nc2ccccc2c(=O)[nH]1)NC1CCN(Cc2ccccc2)CC1`, inactive: 57.9%.
Still for that read-out and setting: for `Oc1cc(O)cc(/C=C/c2ccc(O)c(O)c2)c1` the value was inactive: -17.9%; for `O=C1OCCC1Sc1nc(-c2ccccc2)cs1` (configuration not stated), inactive: 55.1%.
For the compound `Cc1cccc(C2CN(C)CCc3c2cc(O)c(O)c3Cl)c1` (configuration not stated), the Potency result was “inactive”.
Consider `COc1ccc(OC)c(NC(=O)c2cccc3c2C(=O)N(C2CCCCC2)C3)c1`, for which the “activity change, negative = inhibition” value is inactive: -6.42%.
Still for that read-out and setting: for `CS(=O)(=O)c1ccc(-c2cccc(NC(=O)COc3ccccc3)c2)nn1` the value was inactive: 64.4%.
The same measure, in the same setting: for `Cc1ccc(C(C(=O)NC(C)(C)C)N(C(=O)c2csnn2)c2ccccc2F)o1` (configuration not stated) the value was inactive: 61.8%.
In the case of `CC[C@@H]1Cc2cc(O)ccc2C2=C1c1ccc(O)cc1C[C@H]2CC`, the Potency is active: 23.8 µM.
Same read-out and setting: the same measure for `Cc1ccc(S(=O)(=O)/C=C/C#N)cc1`: active: 5.97 µM.
Regarding `COc1ccccc1NC(=O)CCN1CCN(c2ccc(Cl)cc2)CC1`, the “activity change, negative = inhibition” value is inactive: 56.2%.
On the same count and under the same terms, the same measure for `N[C@H](C(=O)O)c1cccc(O)c1`: inactive: 424% [at 56.9 µM].
As for `Nc1nc(Nc2ccccc2)nc2c1ncn2[C@@H]1O[C@H](CO)[C@@H](O)[C@H]1O`, the Potency entry was “inactive”.
Take `Cc1ccc(Nc2c(-c3ccc(C)o3)nc3cccc(C)n23)cc1`: the “activity change, negative = inhibition” value is inactive: -31.7%.
For the compound `CCOC(=O)[C@@H]1[C@H]2COc3cc(OC)ccc3[C@H]2N2C(=O)N(c3ccc(C(F)(F)F)cc3)C(=O)[C@]12C`, the “activity change, negative = inhibition” value is inactive: 28%.
Still for that read-out and setting: the same measure for `CCOC(=O)C1CCCC(NS(=O)(=O)c2ccc(NC(C)=O)cc2)C1` (configuration not stated): inactive: -10.6%; for `COc1ccc(CNC(=O)c2nn(C)c3c2CS(=O)(=O)c2ccccc2-3)cc1`: inactive: -7.16%.
The same measure, in the same setting: the same measure for `O=C1OC[C@@H]2CCCN2C(=O)[C@@H](CC(=O)N(CCO)Cc2ccccc2)C/C=C\C[C@@H]1Cc1ccc(F)cc1`: inactive: -12.7%; for `CC(Cc1ccc(O)c(O)c1)C(C)Cc1ccc(O)c(O)c1` (configuration not stated): inactive: -28.7%.
Still for that read-out and setting: the same measure for `CCCCn1c(N)c(N(CC)C(=O)c2cc(Br)ccc2Cl)c(=O)[nH]c1=O`: inactive: 59%; for `CCCN(CC(=O)Nc1ccccc1C)C(=O)c1cn2ccccc2n1`: inactive: 78.5%.
With `CCCCN(CC)C(=O)c1cc2c(=O)n3cccc(C)c3nc2s1`, the “activity change, negative = inhibition” value was inactive: -7.01%.
Regarding `CCCCC1C(=O)N(c2ccccc2)N(c2ccccc2)C1=O`, the “activity change, negative = inhibition” value was inactive: -19.3%.
On the same count and under the same terms, the same measure for `Nc1ncnc2c1nc(Br)n2[C@@H]1O[C@@H]2COP(=O)(O)O[C@H]2[C@H]1O`: inactive: 15.6%.
Still for that read-out and setting: the same measure for `O=C(O)Cc1ccc(O)c(O)c1`: inactive: 2.61%.
The same measure, in the same setting: for `O=C(NCc1ccccc1)c1nc(S(=O)(=O)Cc2ccccc2)ncc1Cl` the value was inactive: -15.5%; for `O=C(NCCN1C(=O)S/C(=C/c2cccnc2)C1=O)C1=NN(c2ccccc2)C(=O)CC1`, inactive: -37.7%.
For `C[C@H](Cc1ccccc1)Nc1ncnc2c1ncn2[C@@H]1O[C@H](CO)[C@@H](O)[C@H]1O`, the “activity change, negative = inhibition” value was inactive: 0%.
The same measure, in the same setting: for `CC(=O)Nc1nc2c(s1)C(=O)NCCC2` the value was inactive: 54.3%.
For the compound `CN(C)CCC(c1ccccc1)c1ccccn1` (configuration not stated), the Potency entry was “inactive”.
On to `CC(=O)OC(C)C[N+](C)(C)C` (configuration not stated), for which the Potency entry is “inactive”.
Take `O=C(O)c1ncc(-c2ccccc2)cn1`: the “activity change, negative = inhibition” value is inactive: 54.3%.
Take `CCN1/C(=C/C(C)=O)Sc2ccc(OC)cc21`: the Potency entry was “inactive”.
Turning to `C[C@H]1c2cccc(O)c2C(O)=C2C(=O)[C@]3(O)C(O)=C(C(N)=O)C(=O)[C@@H](N(C)C)[C@@H]3[C@@H](O)[C@@H]21`, the “activity change, negative = inhibition” value was inactive: -4.52%.
Same read-out and setting: for `COc1cc(CC(=O)O)ccc1O` the value was inactive: 19.3%.
On the same count and under the same terms, for `O=c1[nH]c2cc(Cl)ccc2c(O)c1-c1ccc(Oc2ccccc2)cc1` the value was inactive: 12.8% [at 56.9 µM]; for `CCNC(=O)C(C)Sc1ccc(Cl)cc1` (configuration not stated), inactive: 58.7%; for `Clc1ccccc1C(c1ccccc1)(c1ccccc1)n1ccnc1`, inactive: -4.7%.
As for `CN(C)CCOC(c1ccccc1)c1ccccc1` (tested in a mixture with another compound), the “activity change, negative = inhibition” value was inactive: -1.48%.
As to `Cc1cc(/C([O-])=C(/C(=S)Nc2ccc(F)cc2)[n+]2ccccc2)c(C)n1-c1ccc(F)cc1`, the “activity change, negative = inhibition” value was inactive: -40.9%.
`Nc1cc(N2CCCCC2)nc(N)[n+]1OS(=O)(=O)[O-]`: the “activity change, negative = inhibition” value was inactive: -50% [at 56.9 µM].
Still for that read-out and setting: for `O=C1S/C(=C\c2ccc(N3CCOCC3)o2)C(=O)N1Cc1ccc(F)cc1` the value was inactive: -94.1%.
With `N[C@@H](CSS(=O)(=O)O)C(=O)O`, the Potency entry was “inactive”.
Still for that read-out and setting: the same measure for `CC(C)(Oc1ccc(C2CC2(Cl)Cl)cc1)C(=O)O` (configuration not stated): “inactive”.
As for `S=c1nc[nH]c2nc[nH]c12`, the “activity change, negative = inhibition” value was inactive: -38.3%.
With `CNC1(C)C2CCC(C2)C1(C)C` (configuration not stated), the “activity change, negative = inhibition” value was inactive: 5.56% [at 56.9 µM].
Regarding `OCc1ccc(-c2nn(Cc3ccccc3)c3ccccc23)o1`, the Potency entry was “inactive and active: 23.8 µM”.
Still for that read-out and setting: the same measure for `CO/N=C(\C(=O)N[C@@H]1C(=O)N2C(C(=O)O)=C(COC(C)=O)CS[C@H]12)c1csc(N)n1` (stereo in doubt): “inactive”; for `NNC(=O)Cn1c(SCc2ccccc2)nc2ccccc21`: “inactive”.
For `CC(C)CC(=O)NC1(C(F)(F)F)NC(=O)N(c2ccccc2)C1=O` (configuration not stated), the “activity change, negative = inhibition” value is inactive: 58.9%.
Same read-out and setting: for `COC(=O)c1c(C)nsc1NC(=O)Oc1ccccc1` the value was inactive: 93.9%; for `COc1ccc(C(=O)N/C(=C/c2ccc(Cl)cc2)C(=O)NCc2ccncc2)cc1`, inactive: 74.9%; for `COc1ccc(CCN2C(=O)C3C4CC(C5C(C(=O)NN)=NOC45)C3C2=O)cc1OC` (configuration not stated), inactive: 59.2%.
On to `CCN1CCC[C@H]1CNC(=O)c1cc(S(N)(=O)=O)ccc1OC`, for which the Potency entry was “inactive”.
As for `Cc1cc(C)c2nc(SCCc3ccccc3)nc(C)c2c1`, the “activity change, negative = inhibition” value was inactive: 73.5%.
The same measure, in the same setting: for `COc1ccc(CCCOC(Cn2ccnc2)c2ccc(OC)cc2)cc1` (configuration not stated) the value was inactive: 360% [at 56.9 µM].
On the same count and under the same terms, the same measure for `O=C(O)c1cc(-c2ccco2)nc2ccc(Br)cc12`: inactive: -7.8%; for `Cn1cc(C(=O)NS(=O)(=O)Nc2ccc(Br)cn2)c2ccccc21`: inactive: 82.6%; for `O=C1c2ccccc2-c2n[nH]c3cccc1c23`: inactive: -11.1%.
The same measure, in the same setting: the same measure for `C/C=C1\COC(C(=O)NCCCN2CCCC2=O)(C(F)(F)F)C=C1C=C(C)C` (configuration not stated): inactive: -1.03%; for `CC(CN1c2ccccc2Sc2ccccc21)N(C)C` (configuration not stated): inactive: 0.087%.
`CCOC(=O)C1=C(C)NC(C)=C(C(=O)OC)C1c1cccc([N+](=O)[O-])c1` (configuration not stated): the Potency entry was “inactive”.
For the compound `N[C@@H](C(=O)O)c1ccc(O)c(C(=O)O)c1`, the Potency entry was “inactive”.
As for `CCOC(=O)C1=C(CN2CCN(C(=O)c3ccco3)CC2)NC(=O)NC1c1ccc(C)cc1` (configuration not stated), the “activity change, negative = inhibition” value is inactive: 65.7%.
On to `COc1ccccc1N1CCN(CCN2C(=O)CC3(CCCC3)CC2=O)CC1`, for which the Potency result is “inactive”.
In the case of `CN1Cc2sccc2C(c2ccc(O)c(O)c2)C1` (configuration not stated), the “activity change, negative = inhibition” value was inactive: 32.6% [at 56.9 µM].
Still for that read-out and setting: the same measure for `COc1ccccc1CNCCCCCCNCCCCCCCCNCCCCCCNCc1ccccc1OC`: inactive: -7.55% [at 56.9 µM].
In the case of `CC(NC(=O)CNC(=O)[C@@H]1Cc2ccccc2CN1)c1ccccc1` (some centres not stated), the “activity change, negative = inhibition” value is inactive: 55.3%.
For the compound `C#C[C@]1(O)CC[C@H]2[C@H]3CCC4=Cc5oncc5C[C@]4(C)[C@@H]3CC[C@]21C`, the “activity change, negative = inhibition” value is inactive: 19.5% [at 56.9 µM].
With `CC(C)(C)NCC(O)c1ccc(O)c(CO)c1` (configuration not stated), the Potency result was “inactive”.
The same measure, in the same setting: for `[N-]=[N+]=Nc1ccc(C(=O)CSC[C@H](NC(=O)CC[C@H](N)C(=O)O)C(=O)NCC(=O)O)cc1` the value was active: 3.36 µM.
Consider `COc1ccc(-c2nn(-c3ccccc3)cc2/C=C(/C#N)C(N)=O)cc1[N+](=O)[O-]`, for which the “activity change, negative = inhibition” value was inactive: -31.1%.
On the same count and under the same terms, the same measure for `CC(=O)O[C@H]1Cc2ccccc2N(C(N)=O)c2ccccc21`: inactive: 19.6% [at 56.9 µM]; for `O=C(O)c1ccccc1Nc1cccc(OCc2ccc3ccccc3n2)c1`: inactive: 4.09%.
